Out of some 130,000 compounds screened, about 1,200 (0.92%) were called active. Inconclusive results, whose numbers are uncertain, are shown with a selection of clear calls. The call rests on the fitted dose curve; in most records, active means well fitted cell-killing curve with a large enough effect; inconclusive means small, poorly fitted or top-dose-only effect; inactive means no such curve, though single readings can be large or run the other way. Where the call is inconclusive, the potency comes from a doubtful curve fit.
Assay: qHTS Screen for Compounds that Selectively Target Cancer Cells with p53 Mutations: Cytotoxicity of p53ts Cells at the Permissive Temperature; further: nearly all actives have a fitted effect of over 55% in size;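 on activity change, negative = cytotoxicity: 0% = DMSO and -100% = full killing by reference compound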
Settings: H1299-p53A138V at 32C, ATP luminescence viability, 24 h; activity change, negative = cytotoxicity: at 46.1 µM (top of the series)
How it was run: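 H1299-p53 A138V cells (temperature-sensitive p53) exposed 24 h to up to 46 uM compound at 32C, where p53 is wild-type in conformation. Viability read as ATP luminescence and normalised to DMSO and 100 uM tamoxifen. AC50 fitted with the Hill equation.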
Potency means the concentration at half of the fitted maximal effect; tags describe the fitted curve by direction and shape.

SMILES | Potency | activity change, negative = cytotoxicity
CCSc1nnc(NC(=O)c2ccccn2)s1 | active: 10 µM | 
Nc1nc2sc3c(c2cc1C(=O)N1CCOCC1)CCCC3 | inconclusive: 12.6 µM [cytotoxic, partial curve] | 
COc1ccccc1NC(=O)c1ccc2c(Cl)c3c(nc2c1)CCCC3 | inconclusive: 12.6 µM [cytotoxic, single point] | 
CC1=C(c2ccc(C)c(C)c2)S(=O)(=O)N=C1N1CCC(C(=O)NCCc2ccc(Cl)cc2)CC1 | inconclusive: 11.2 µM [cytotoxic, partial curve, poor fit] | 
COc1ccccc1CNc1ccc(-c2nc(C)no2)cc1[N+](=O)[O-] | inactive | 
COC(=O)c1ccc(Cl)cc1NC(=O)N1CCCn2nc(C)cc21 | inactive | 
Cc1ccsc1/C=N\NC(=O)c1n[nH]c2c1CCC2 | inconclusive: 7.94 µM [cytotoxic, partial curve, poor fit] | 
COc1ccccc1NC(=O)C(=O)c1cc(C)n(-c2ccccc2F)c1C | inactive | 
COc1ccc(NC(=O)CSc2nc3nc(C)c(Cc4ccc(C)cc4)c(C)n3n2)cc1OC | inactive | 
COc1cc(Cl)c(C)cc1NC(=O)c1cc2ccc3cccnc3c2[nH]1 | inconclusive: 12.6 µM [cytotoxic, partial curve] | 
Cc1ccc2nc(Cl)c3cc(C(=O)NCCCN(C)Cc4ccccc4)sc3c2c1 | inconclusive: 25.1 µM [cytotoxic, single point] | 
CCCCc1ccc(NC(=O)c2c(C)noc2C)cc1 | inconclusive: 25.1 µM [cytotoxic, single point] | 
O=C(O)[C@@H]1CCCN1 |  | inactive: -6.51% [at 9.22 µM]
COc1ccccc1CNC(=O)CSc1nc(=O)[nH]c2c1CCC2 | inactive | 
CC(C)(C)c1ccc(C(=O)/C=C2\NC(=O)CS2)cc1 | active: 10 µM | 
O=C(O)c1[nH]c2c([N+](=O)[O-])cc([N+](=O)[O-])cc2c1C(=O)O |  | inactive: -2.54% [at 9.22 µM]
Clc1ccc(-c2nnc(SCc3nc4ccccc4[nH]3)o2)c(Cl)c1 | inactive | 
COc1ccc2nc(NC(=O)c3cc(=O)c4cc(C)cc(C)c4o3)sc2c1 | inactive | 
CCOc1ccccc1C(=O)NCc1nc2cccnc2n1Cc1ccc(C)cc1 | inactive | 
Cc1ccc(-n2ncc3c(NC4CCCCC4)ncnc32)cc1Cl | inconclusive: 12.6 µM [cytotoxic, partial curve] | 
CCOc1ccc(-c2cc(C(=O)O)c3ccccc3n2)c(OCC)c1 | inconclusive: 5.01 µM [cytotoxic, partial curve] | 
COc1ccc(OCCn2nnc3sc4c(c3c2=O)CCCC4)cc1 | inactive | 
Cc1ccc2oc(-c3ccc(C)c(NC(=O)c4ccc(-c5ccccc5[N+](=O)[O-])o4)c3)nc2c1 | inactive | 
Cc1ccc(CNC(=O)CN2C(=O)CCc3cc(S(=O)(=O)N4CCCCC4)ccc32)cc1 | inactive | 
Cc1cc(C)cc(OCC(=O)Nc2cccc(-c3nnc(-c4ccco4)o3)c2)c1 | inactive | 
COc1ccccc1O | inconclusive: 0.0126 µM [cytotoxic, partial curve, poor fit] | 

SMILES | Potency | activity change, negative = cytotoxicity
CCOc1ccc(NC(=O)C(C)n2c(=O)cc(C)c3c(C)nn(-c4ccccc4)c32)cc1 (configuration not stated) | inactive | 
CC(=O)Nc1ccc(NC(=O)c2cc(-c3ccc4c(c3)OCCO4)on2)cc1 | inconclusive: 2.51 µM [cytotoxic, full curve] | 
Cc1c(Cl)cccc1NC(=O)Nc1ccc2snnc2c1 | inconclusive: 31.6 µM [cytotoxic, single point] | 
C=CCNc1ncnc2c1[nH]c1ccc(C)cc12 | inconclusive: 15.8 µM [cytotoxic, partial curve] | 
COc1cccc(CNCCSc2nnnn2-c2ccccc2)c1OC | inconclusive: 2.82 µM [cytotoxic, full curve] | 
Cc1ccc(N2C(=O)c3ccccc3C2O)nc1 (configuration not stated) | active: 3.98 µM | 
CC(C)(C)NC(=O)CSc1ncnc2c1nnn2Cc1ccccc1Cl | inconclusive: 31.6 µM [cytotoxic, single point] | 
CSc1ccc(/C=C/c2nc3ccccc3n2S(=O)(=O)c2cccc(Cl)c2)cc1 | active: 3.16 µM | 
O=C(/C=C/Nc1ccccc1Br)c1ccccn1 | active: 0.794 µM | 
COc1ccc(C(=O)Nc2cccc(C)c2)cc1 | active: 6.31 µM | 
CN=c1scc(C)n1/N=C/c1ccc2c(c1)OCO2 | active: 5.01 µM | 
CCOc1ccc(N2Cc3ccccc3C2)cc1 | active: 12.6 µM | 
COc1ccc2nc(NC(=O)c3nc(SC(C)C)ncc3Cl)sc2c1 | inactive | 
CCCSc1nnc2nc3c(nn12)c1ccccc1n3C | inactive | 
COc1ccc(OC)c2[nH]c(=O)c(CCNC(=O)c3cc4ccccc4o3)cc12 | active: 12.6 µM | 
CC(C)(C)N=C1NC(=NC(C)(C)C)c2ccccc21 | inactive | 
Cc1ccc(-n2nc(C(=O)NCc3ccco3)c3c4ccccc4n(C)c3c2=O)cc1 | inactive | 
COc1cccc(-c2nnc(SCC(=O)Nc3cc(C)on3)o2)c1 | inconclusive: 12.6 µM [cytotoxic, single point] | 
COc1ccc(CSc2nc3ccncc3n2CC(=O)Nc2ccc(C)c(F)c2)cc1 | inconclusive: 12.6 µM [cytotoxic, partial curve] | 
CCS(=O)(=O)c1ccc2oc(Nc3ccccc3C)nc2c1 | inconclusive: 15.8 µM [cytotoxic, single point] | 
CCOC(=O)CSc1nnc2n(-c3ccccc3)c(=O)c3c4c(sc3n12)CC(C(C)(C)C)CC4 (configuration not stated) | inconclusive: 31.6 µM [cytotoxic, single point] | 
CCCCCSc1nc2sc3c(c2c(=O)n1-c1ccc(OC)cc1)CCN(C(C)=O)C3 | inconclusive: 31.6 µM [cytotoxic, single point] | 
CCCCNC(=O)C1CCCN1C(=O)Nc1ccccc1 (configuration not stated) | inconclusive: 11.2 µM [cytotoxic, single point] | 
COc1ccccc1-n1nc(C(=O)Nc2ccc3c(c2)OCO3)c2ccccc2c1=O | inactive | 
O=C(Nc1cccnc1)c1ccc(NC(=O)c2ccco2)cc1 | inactive | 
CC(C)Oc1ccc(C(=O)Nc2nnc(SCC(=O)N3CCOCC3)s2)cc1 | active: 0.631 µM | 

Source: PubChem BioAssay AID924 (National Center for Advancing Translational Sciences (NCATS), 2007)
